From PubChem BioAssay AID540267 (National Center for Advancing Translational Sciences (NCATS), 2011)
Hit rate of the full screen: of about 340,000 compounds, about 530 (0.16%) were called active. Inconclusive means that the source gave no clear call. Such entries were picked first, then a sample of the others. Rule as the data show it: active = activity change below about -80%; inconclusive = between about -30% and that limit; inactive = weaker than that.

test: Small Molecules that selectively kill Giardia lamblia: qHTS; conditions: Giardia lamblia trophozoite viability; at 7.66 µM; stronger effect = lower value;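 also: parasites exposed to compound for two days anaerobically before the ATP read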
Summary of the method: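 Luminescent ATP signal served as the viability read-out, measured 15-30 min after adding ATP detection reagent to trophozoites that had been incubated with compounds for 48 hrs at 37 deg C anaerobically at 100 cells/well.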
% is scaled to controls: 0 for no effect and ±100 for the full control effect.

SMILES | activity change
Cn1ncnc2c(=O)n(C)c(=O)nc1-2 | active: -88.3%
Cc1cc(C)nc(NS(=O)(=O)c2ccc(N=Cc3c(O)n(C)c(=O)n(C)c3=O)cc2)n1 | inactive: 4.83%
C=CC[N+]1(C)C2CCC1CC(O)C2 (centres undefined) | inactive: 12.7%
CCn1c(O)c(/C=N/NC(=O)c2ccccc2)c(=O)n(CC)c1=S | inactive: 3.28%
CCOc1ccc(-c2cc(C(=O)N3CCC4(CC3)OCCO4)c3ccccc3n2)cc1 | inconclusive: -51.3% [inhibitor]
COc1cc(O)cc2c1cc([N+](=O)[O-])c1c(C(=O)O)cc3c(c12)OCO3 | inconclusive: -35.4% [inhibitor]
Cc1ncc([N+](=O)[O-])n1CCOc1nonc1N | active: -86.5%
CC1CC(C)CC(C)C(O)C(C#N)=CC=CCC(C2CCCC2C(=O)O)OC(=O)CC(O)C(C)C1 (centres undefined) | inconclusive: -46.1% [inhibitor]
O=[N+]([O-])c1ccc(N2CCOCC2)c2ccncc12 | inconclusive: -44.6% [inhibitor]
Oc1c(Cl)cccc1Cc1cc(Cl)cc(Cl)c1O | inactive: 0.317%
O=[N+]([O-])c1ccc(N2CC2)c([N+](=O)[O-])c1 | inconclusive: -30.1% [inhibitor]
CN(C)CC1CSCCC1(O)c1ccccc1Cl (centres undefined) | inconclusive: -34% [inhibitor]
Cc1cc(OCC(=O)NC2CCS(=O)(=O)C2)c2c3c(c(=O)oc2c1)CCC3 (centres undefined) | inactive: 13.9%
COc1ccc(CN2CCCC(C(=O)c3cccc(Cl)c3)C2)cc1 (centres undefined) | inactive: -18.8%
O=C1NC2C(=CC(O)C(O)C2O)c2cc3c(c(O)c21)OCO3 (centres undefined) | inconclusive: -39.6% [inhibitor]
CC(=Nc1ccccc1N)c1c(O)n(C)c(=O)n(C)c1=O | inconclusive: -39% [inhibitor]
CCCCn1c(=O)c(C(=O)NCc2ccccc2OC)c(O)c2ccccc21 | inconclusive: -74.9% [inhibitor]
CC(C)(C)C(=O)O[C@H]1CC[C@@]2(C)C(=CC(=O)C3C2CC[C@]2(C)C(=O)[C@@H](F)CC32)C1 (some centres undefined) | inactive: -0.0183%
Cc1nc2ccccc2c(=O)n1-c1ccc(-c2ccccc2)cc1 | inconclusive: -41.4% [inhibitor]
CCN(CC)c1ccc(/C=C/[N+](=O)[O-])cc1 | inactive: -14.7%
CN1CCN(C(=O)COc2ccc(-c3nc4ccccc4s3)cc2)CC1 | inconclusive: -79.9% [inhibitor]
CCn1ccnc1CN1CCCC(C(=O)c2cc(Cl)ccc2OC)C1 (centres undefined) | inactive: -0.356%
O=C(c1ccccc1)C(CN1CCCC1)c1ccccc1 (centres undefined) | inconclusive: -32.8% [inhibitor]
O=C1N[C@H](Cc2ccccc2)C(=O)N2[C@@H]3[C@H](C[C@@H]12)c1ccccc1N3OOSc1ccccc1 | inconclusive: -36.8% [inhibitor]
O=C(NN=Cc1ccc(N(CCCl)CCCl)cc1)c1cccc([N+](=O)[O-])c1 | inconclusive: -37.6% [inhibitor]
CN1CN(c2ccccc2)C2(CCN(CCCSc3ccccc3NC(=O)/C=C/c3ccccc3)CC2)C1=O | inconclusive: -36.7% [inhibitor]
O=C(CNC(=O)c1ccc(Cl)cc1)Nc1ccc(Br)cc1C(=O)c1ccccc1 | inactive: 15.3%

SMILES | activity change
COc1ccc(-n2c(/C=C/c3ccc4c(c3)OCO4)nc3ccccc3c2=O)cc1 | inconclusive: -31.5% [inhibitor]
O=C(c1cc2cc(Br)ccc2[nH]1)N1CCC2(CC1)OCCO2 | inconclusive: -31.3% [inhibitor]
CN(C)C(=O)Oc1ccc(Br)c2ccccc12 | inconclusive: -60.7% [inhibitor]
O=[N+]([O-])c1cc([As](=O)(O)O)ccc1O | inconclusive: -79.3% [inhibitor]
CCc1ccc(-n2c(O)c(C(C)=O)c(=O)[nH]c2=O)cc1 (tested in a mixture with another compound) | inconclusive: -32.4% [inhibitor]
COC(=O)CCCCC1SCC(NC(=O)c2ccccc2)C1Cl (centres undefined) | inconclusive: -33.3% [inhibitor]
Cc1c(CC(=O)N2C[C@H]3C[C@@H](C2)c2cccc(=O)n2C3)c(=O)oc2cc(O)c(Cl)cc12 | inconclusive: -33.7% [inhibitor]
CN1CC(C(=O)c2ccc(Cl)cc2)C(c2ccccc2)C1 (centres undefined) | inconclusive: -34.5% [inhibitor]
Cn1cccc1/C=C1\C(=O)NC(=O)N(CCC2=CCCCC2)C1=O | inactive: -13%
CCOC(=O)C1(CCCc2ccccc2)CCN(C2CCCC2)CC1 | inconclusive: -31.8% [inhibitor]
Cc1cccc(OP(=O)(Oc2ccccc2)OC(c2ccccc2)C(F)(F)F)c1 (centres undefined) | inconclusive: -32.8% [inhibitor]
COC1/C=C/C=C(\C)Cc2cc(O)c(Cl)c(c2)N(C)C(=O)CC(OC(=O)C(C)C)C2(C)OC2C(C)C2CC1(O)NC(=O)O2 (centres undefined) | inconclusive: -46.6% [inhibitor]
COc1cc(C2c3cc4c(cc3CC3COC(=O)C32)OCO4)cc(OC)c1O (centres undefined) | inactive: 1.44%
COC(=O)NC(=C(Cl)Cl)P(=O)(c1ccccc1)c1ccccc1 | inconclusive: -35.5% [inhibitor]
O=c1c2ccccc2[nH]c(=S)n1-c1ccc(Br)cc1 | inconclusive: -31.1% [inhibitor]
Clc1ccc2c(N3CCNCC3)ccnc2c1 | inactive: -12.3%
CCCCn1c(=O)c(C(=O)Nc2ccccn2)c(O)c2ccccc21 | inactive: -13.4%
COc1ccc(-n2c(O)c(C=NCCN3CCN(C(C)=O)CC3)c(=O)[nH]c2=S)cc1 | inactive: 2.16%
Cc1ccccc1N1C(=O)CC(=O)N(c2ccccc2C)C1=O | inconclusive: -30.9% [inhibitor]
O=C1NC(=S)SC1=Cc1ccc(N(CCCl)CCCl)cc1 | inactive: 5.36%
CC(C)CC(NC(=O)C1CCCCC1)C(=O)N1CCC2(CC1)OCCO2 (centres undefined) | inactive: -2.41%
COC(=O)C1=C(c2cc3ccccc3s2)C[C@@H]2CC[C@H]1N2C(=O)NC(C)C | inconclusive: -33.1% [inhibitor]
CC1CN(c2ccc([N+](=O)[O-])c3cccnc23)CC(C)N1 (centres undefined) | active: -86.5%
CCn1nc(/C=C/c2ccccc2)nc2c(=O)n(C)c(=O)nc1-2 | active: -94.3%
COC(=O)c1nc(-c2ccc3c(n2)C(=O)C(N)=C(OC)C3=O)c(N)c(-c2ccc(OC)c(OC)c2O)c1C | inconclusive: -53.9% [inhibitor]
CN1OCC2Cn3c(nc4ccccc43)C21 (centres undefined) | inconclusive: -40.5% [inhibitor]
Cc1ccc(-n2c(C)nc3cc(Cl)ccc3c2=O)nc1 | inconclusive: -31.2% [inhibitor]

SMILES | activity change
CC12CCC3C(CCC4(O)CC(O)CCC34C=O)C1(O)CCC2C1=CC(=O)OC1 (centres undefined) | inactive: -1.81%
CCCC(=O)NC(Oc1ccc(Cl)cc1Cl)C(Cl)(Cl)Cl (centres undefined) | inactive: -13.3%
CC(=O)OC1(C)CC(C)C(=O)C(C(O)CC2CC(=O)NC(=O)C2)C1 (centres undefined) | inconclusive: -73.6% [inhibitor]
CNC(=O)Oc1cccc(-c2cn3cc(Cl)ccc3n2)c1 | inconclusive: -60% [inhibitor]
O=P(O)(O)/C=C(\Cl)c1ccccc1 | inactive: 19.3%
Cc1cc([N+](=O)[O-])c2ccccc2[n+]1[O-] | active: -88.5%
CCN(CC)CCO | inconclusive: -34.4% [inhibitor]
CC1(C)OC1COc1c2occc2cc2ccc(=O)oc12 (centres undefined) | inconclusive: -33.5% [inhibitor]
Cc1cc(OCC(=O)OC(C)(C)C)c2c3c(c(=O)oc2c1)CCC3 | inactive: 0.369%
CC1[C@H]2Cc3ccc(O)cc3[C@]1(C)CCN2C (some centres undefined) | inactive: -18.2%
COc1cc2c(cc1OC)C(C1c3cc4c(cc3CCN1C)OCO4)OC2=O (centres undefined) | inconclusive: -39.9% [inhibitor]
CC(=O)OCC12CC(OC(=O)CC(C)C)C(C)=CC1OC1C(O)C(OC(C)=O)C2(C)C12CO2 (centres undefined) | inconclusive: -40.6% [inhibitor]
CN(C)C(=O)Oc1ccc(OC(=O)N(C)C)cc1 | inactive: -16.8%
O=C1NC(=S)NC(=O)C1C1CCCCC1 | inconclusive: -33.2% [inhibitor]
CC(C)c1ccc(N=Nc2c(O)[nH]c(=O)[nH]c2=O)cc1 | inconclusive: -46.8% [inhibitor]
Cc1ccc2nc(-c3ccncc3)cc(C(=O)N3CCC4(CC3)OCCO4)c2c1 | inconclusive: -30% [inhibitor]
O=C(CNC(=O)c1ccc(Br)cc1)Nc1ccc(Br)cc1C(=O)c1ccccc1 | inconclusive: -41.5% [inhibitor]
Nc1ncc([N+](=O)[O-])s1 | inconclusive: -41.5% [inhibitor]
CNCCCc1ccccc1 | inactive: 9.34%
O=C(O)c1cccc2c1NC(c1cccc([N+](=O)[O-])c1)C1CC(Sc3ccccc3[N+](=O)[O-])C(Cl)C21 (centres undefined) | inactive: -6.86%
CN(C)/C=C1/C(=O)NC(=O)N(CCNc2ncc(C(F)(F)F)cc2Cl)C1=O | inconclusive: -36% [inhibitor]
O=c1[nH]c(=O)n(Cc2ccc(F)cc2)c(O)c1C=Nc1ccc(Cl)cc1 | inconclusive: -36.3% [inhibitor]
COC(=O)C1=C(c2cccc(OC)c2OC)C[C@@H]2CC[C@H]1N2C(=O)NCC1CC1 | inconclusive: -32.6% [inhibitor]
COc1cccc(-c2nc3ccc(N4CCN(C)CC4)cc3[nH]2)c1 | inconclusive: -69.1% [inhibitor]
Cc1ccccc1-n1c(-c2ccoc2)nc2ccccc2c1=O | inconclusive: -35.8% [inhibitor]
